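Cells were grown in 96-well plates and exposed to each compound for 48 hours at five concentrations; endpoints were interpolated linearly between bracketing concentrations, or set to the highest concentration if not reached. Abbreviation: GI50, concentration required for 50% inhibition of growth.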 Activity calls are given as the source filed them. Rule as the data show it: active = GI50 up to about 1.1 µM and inactive = higher.
Each molecule was assayed on NCI-H322M (assay: DTP human tumour cell line panel, 48 h).

For O=C1CSC2=NC3=C(COC/C3=C\c3ccc(Br)cc3)C(c3ccc(Br)cc3)N12 (stereo not drawn), which GI50 is on record?
Its GI50 is inactive: 58.5 µM.

How did the GI50 turn out when COc1ccc(/N=N/C(=N/NC(=O)c2cc(Cl)ccc2C(=O)c2ccccc2)c2ccc(N(CCC#N)CCC#N)cc2C)cc1 was run?
Its GI50 is inactive: 17.5 µM.

With CN1CC[C@@]2(c3cccc(O)c3)CC(=O)/C(=C/c3ccc(Cl)c(Cl)c3)[C@H]1C2 as the molecule, how does the GI50 read?
The GI50 was inactive: 4.03 µM.

Which GI50 does the source give for COc1ccc(C(=C2C(=O)N(c3ccccc3)C(=O)C2=C(C)C)c2ccc(OC)cc2)cc1 here?
Its GI50 is inactive: 7.5 µM.

How did the GI50 turn out when CN(C)c1[se]nc2c1c(=O)n(C)c(=O)n2C was run?
Its GI50 is inactive: > 100 µM.

With O=[N+]([O-])c1nccn1COCCO as the molecule, how does the GI50 read?
The GI50 was inactive: > 100 µM.

How did the GI50 turn out when COc1ccc2c(c1)CCC(CN1CCN(CCOC(c3ccc(F)cc3)c3ccc(F)cc3)CC1)C2O (stereo not drawn) was run?
Its GI50 is inactive: 15.6 µM.

For C#CCCCCC#CC1CCCC1C1=CC(=O)c2ccccc21 (stereo not drawn), which GI50 is on record?
Its GI50 is inactive: 13.5 µM.

CN(CC(=O)O)CC(=O)O was tested. Which GI50 did it give?
The GI50 was inactive: > 100 µM.

For CCOC(=O)C1CCC(=O)N1C(=O)c1ccccc1Cl (stereo not drawn), which GI50 is on record?
The GI50 was inactive: > 100 µM.

COc1ccc2c3c(c(=O)n(C)c2c1OC)C=CC(C)(C)O3 was tested. Which GI50 did it give?
Its GI50 is inactive: 89.9 µM.

Cc1cc(N(CCC#N)CCC#N)ccc1/C=C1N=C(/C=C/c2ccccc2)OC(=O)N\1 was tested. Which GI50 did it give?
Its GI50 is inactive: > 100 µM.

For O=P(O)(O)CN1CCNCCN(CP(=O)(O)O)CCNCC1, which GI50 is on record?
The GI50 was inactive: > 100 µM.

Which GI50 does the source give for O=[N+]([O-])C(/C=C(\Cl)[N+](=O)[O-])=C(N1CCOCC1)N1CCOCC1 here?
The GI50 was inactive: > 100 µM.

With CN(C)c1ccc(/C=N/c2ccc(-c3nc4ccccc4[nH]3)cc2)cc1 as the molecule, how does the GI50 read?
Its GI50 is inactive: 46.1 µM.

COc1ccc(C=O)cc1O[Si](C)(C)C(C)(C)C was tested. Which GI50 did it give?
Its GI50 is inactive: > 100 µM.

How did the GI50 turn out when CC(C)C(Br)CCC1=CCC(Br)(Br)C1 (stereo not drawn) was run?
The GI50 was inactive: 16.8 µM.

For Cc1ccc(S(=O)(=O)OC2C(O)C(O)OC2C(c2cc(O)c3c(c2O)C(=O)c2ccccc2C3=O)c2cc(O)c3c(c2O)C(=O)c2ccccc2C3=O)cc1 (stereo not drawn), which GI50 is on record?
The GI50 was inactive: > 10 µM.

For COc1ccccc1NCc1nnc(CCCCCCCCc2nnc(CNc3ccccc3OC)o2)o1, which GI50 is on record?
Its GI50 is inactive: > 100 µM.

CC1=C(C(=O)OCCc2ccc([N+](=O)[O-])cc2)C(c2ccccc2C(F)(F)F)C(C(=O)OC(C)C)=C(C)N1 (stereo not drawn) was tested. Which GI50 did it give?
Its GI50 is inactive: 7.26 µM.

COc1c2nc(CCl)[nH]c(=O)c2c(OC)c2nc(CCl)[nH]c(=O)c12 was tested. Which GI50 did it give?
Its GI50 is inactive: > 100 µM.

OC1C2CCC1C1C3C=CC(C3)C21 (stereo not drawn) was tested. Which GI50 did it give?
The GI50 was inactive: > 100 µM.

With Cc1nc(O)c2c3c(sc2n1)CCCC3 as the molecule, how does the GI50 read?
Its GI50 is inactive: > 100 µM.

How did the GI50 turn out when O=C1CCC2(c3ccc(Cl)cc3)Nc3ccccc3N12 (stereo not drawn) was run?
The GI50 was inactive: > 100 µM.

How did the GI50 turn out when COc1ccc([C@@H]2C[C@@H]3C(=O)OC(=O)[C@@H]3c3c2c2ccccc2n3C)cc1 was run?
Its GI50 is inactive: > 100 µM.

O=c1c2ccccc2[nH]c(=S)n1-c1ccc(Br)cc1 was tested. Which GI50 did it give?
Its GI50 is inactive: > 100 µM.

For Cc1ccc2cc3cccc(C(=O)NCCN(C)C)c3nc2c1, which GI50 is on record?
The GI50 was active: 1.07 µM.

CN(C)C(=O)c1nnsc1NN=O was tested. Which GI50 did it give?
Its GI50 is inactive: > 100 µM.

Which GI50 does the source give for COc1ccc(NC(=S)Nc2cc(C)cc(C)n2)cc1 here?
Its GI50 is inactive: > 100 µM.

Which GI50 does the source give for COc1ccc(/C=C2\OC(=O)C(Cl)=C2c2ccc(OC)c(Cl)c2)cc1 here?
The GI50 was inactive: 39.8 µM.

For Cc1nc2c(c(=O)[nH]1)S/C(=C(/C#N)c1nc3ccccc3[nH]1)N2c1ccccc1, which GI50 is on record?
The GI50 was inactive: > 100 µM.

How did the GI50 turn out when c1ccc2c(c1)NC(C1OC3CCCN3C1C1Nc3ccccc3S1)S2 (stereo not drawn) was run?
The GI50 was inactive: > 100 µM.

How did the GI50 turn out when C=CC1(NC(=O)c2ccccc2)CCC(C(C)(C)C)CC1 (stereo not drawn) was run?
The GI50 was inactive: > 94 µM.

Which GI50 does the source give for COC1OC(COC(=O)c2cc(O)c(O)c(O)c2)C(OC(=O)c2cc(O)c(O)c(O)c2)C(OC(=O)c2cc(O)c(O)c(O)c2)C1OC(=O)c1cc(O)c(O)c(O)c1 (stereo not drawn) here?
The GI50 was inactive: 47.1 µM.

Which GI50 does the source give for Cc1cccc2c1NC(c1c(C)[nH]c3ccccc13)C2 (stereo not drawn) here?
The GI50 was inactive: 75.9 µM.

For O=[N+]([O-])/C=C/c1cc(Cl)c(/C=C/[N+](=O)[O-])cc1Cl, which GI50 is on record?
The GI50 was inactive: 15.2 µM.

CNC(=O)OCc1nc(SC2CCCCO2)n(C)c1COC(=O)NC (stereo not drawn) was tested. Which GI50 did it give?
The GI50 was inactive: > 100 µM.

How did the GI50 turn out when C[N+](C)(N)Cc1csc(-c2ccc(Cl)cc2)n1 was run?
Its GI50 is inactive: > 100 µM.

For Clc1nc(Nc2nc3ccccc3[nH]2)nc(Cl)c1Cc1ccccc1, which GI50 is on record?
The GI50 was inactive: > 100 µM.

For Nc1nc(Cl)c(Cl)c(NCC2(O)CCC2)n1, which GI50 is on record?
The GI50 was inactive: > 100 µM.

Which GI50 does the source give for Oc1nc(-c2ccccc2)cc(-c2ccccc2O)n1 here?
The GI50 was inactive: > 100 µM.

For O=C(Sc1sc(=S)sc1SC(=O)c1ccccc1)c1ccccc1, which GI50 is on record?
The GI50 was inactive: 19.9 µM.

How did the GI50 turn out when CCSc1c2ccccc2c(-c2nc(F)nc(F)n2)n1CCc1ccccc1 was run?
Its GI50 is inactive: > 100 µM.

How did the GI50 turn out when Cc1ccccc1NC(=O)/C(C#N)=N\Nc1[nH]cnc1C(N)=O was run?
Its GI50 is inactive: 79.3 µM.

With O=C1CN(c2ccc(Cl)cc2)C(=O)CN1CCN1CC(=O)N(c2ccc(Cl)cc2)CC1=O as the molecule, how does the GI50 read?
The GI50 was inactive: > 100 µM.

Which GI50 does the source give for C[C@H]1[C@H](N2CCCC2)O[Si](C(C)(C)C)(C(C)(C)C)[C@@H]1C here?
The GI50 was inactive: > 100 µM.

Which GI50 does the source give for CN1CC(c2ccccc2)=CC2=C1C=CC(=N)/C2=N\N here?
Its GI50 is inactive: 4.73 µM.

For Cc1cc2ccccc2oc(=O)/c1=N\Nc1ccccc1, which GI50 is on record?
Its GI50 is inactive: > 100 µM.

COC(=O)C1=C(C(=O)OC)SC2(S1)C(C(=O)OC)=C(C(=O)OC)Sc1c2ss/c1=N\c1ccc(Cl)cc1 was tested. Which GI50 did it give?
The GI50 was inactive: 1.7 µM.

For C=CCCc1cc(OC)ccc1CN(C)C(C)(C)CO, which GI50 is on record?
Its GI50 is inactive: > 100 µM.

With Cc1ccc(S(=O)(=O)N2c3ccccc3[C@H]3CCC=C[C@H]32)cc1 as the molecule, how does the GI50 read?
The GI50 was inactive: 21.6 µM.

For c1cn[nH]c1 [PYRAZOLE], which GI50 is on record?
Its GI50 is inactive: > 10 µM.

Clc1ccc(-c2nn3c(COc4ccc(OCc5nnc6sc(-c7ccc(Cl)cc7)nn56)c(Cl)c4)nnc3s2)cc1 was tested. Which GI50 did it give?
The GI50 was inactive: 53 µM.

With COc1ccc(C2NC3=C(CCCC3)C3(C#N)C(=O)N=C(N)C23C#N)cc1 (stereo not drawn) as the molecule, how does the GI50 read?
The GI50 was inactive: > 100 µM.

CCCCC(C(=O)C(=O)Nc1ccc(C)cc1C)C(=O)C(C)C (stereo not drawn) was tested. Which GI50 did it give?
The GI50 was inactive: > 100 µM.

With S=C(Nc1ccccc1)N1N=C2c3ccccc3CC[C@H]2[C@@H]1c1ccccc1 as the molecule, how does the GI50 read?
The GI50 was inactive: > 100 µM.

For FC1CCN(C2(c3cccs3)CCCCC2)CC1, which GI50 is on record?
The GI50 was inactive: > 100 µM.

For CSc1nc(O)c(C#N)c(-c2ccccc2)n1, which GI50 is on record?
Its GI50 is inactive: > 100 µM.

With COc1ccc(/C=C2\CCC(CNc3ccc(S(N)(=O)=O)cc3)C2=O)cc1 (stereo not drawn) as the molecule, how does the GI50 read?
The GI50 was inactive: > 100 µM.

COC(=O)C1CCC(=O)N1C(c1cc(OC)c(OC)c(OC)c1)c1cccc2ccccc12 (stereo not drawn) was tested. Which GI50 did it give?
The GI50 was inactive: > 100 µM.

For CC[S+]1C2=C(CC(C)(C)CC2=O)[N-]c2ccccc21 (stereo not drawn), which GI50 is on record?
Its GI50 is inactive: > 100 µM.

For CCN(CC)CCNC(=O)c1cn2c(ccc3sc4ccccc4c(=O)c32)n1, which GI50 is on record?
Its GI50 is inactive: 6.52 µM.

Which GI50 does the source give for O=C(CC(=O)N1N=C(N(c2ccccc2)c2ccccc2)CC1c1ccccc1)Nc1cccc(Cl)c1 (stereo not drawn) here?
Its GI50 is inactive: > 100 µM.

Which GI50 does the source give for O=C(NN=C1CCCCC1)Nc1ccccc1Cl here?
Its GI50 is inactive: 76.9 µM.

How did the GI50 turn out when COc1ccc(C2=C3c4cc(OC)c(OC)cc4CCN3C(=S)SS2)cc1OC was run?
Its GI50 is inactive: > 10 µM.

COC(=O)c1ccccc1C1CN=NC12Cc1c(C)c3c(c(C)c1C2=O)CCC3 (stereo not drawn) was tested. Which GI50 did it give?
Its GI50 is inactive: 21.4 µM.

C[C@]12Cc3conc3C(O)=C1CC[C@@H]1C2CC[C@@]2(C)C1CC[C@@H]2O (stereo partly drawn) was tested. Which GI50 did it give?
The GI50 was inactive: 19.9 µM.

Which GI50 does the source give for CC1NC(C(=O)O)Cc2cc(O)c(O)cc21 (stereo not drawn) here?
The GI50 was inactive: > 100 µM.
